Experimental data reported in the supplement of paper PMC7826260.
Some of the results follow. Cleavage of a single-stranded DNA pool by Rep nickase domains was read by sequencing (3 µM enzyme, 1 h, 37 °C); shown is the middle of each 90-letter strand. Values are log2 of uncut reads against the no-enzyme pool; strong cutting gives strongly negative numbers. There is no active / inactive call. Reads are scaled to the total; values above 0 arise when much of the pool is cut.

Legend:
Test in all cases: uncleaved DNA left, log2 of reads against the no-enzyme library (log2 ratio); higher = less cleavage (more negative = more Rep cleavage of the k-mer); sequences stand for … in CTCGTCCG…ACCGGAGA
[1] = test system: T1, Rep nickase domain of Muscovy duck circovirus
T1 sequence (protein, residues 1-111, tag omitted): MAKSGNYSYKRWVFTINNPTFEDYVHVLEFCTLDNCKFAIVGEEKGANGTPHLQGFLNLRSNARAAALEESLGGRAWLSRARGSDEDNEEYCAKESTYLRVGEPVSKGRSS
Protocol: (§1)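 A pool of 90-nt single-stranded DNAs with seven random bases just before the constant AC of the nick site (name = the seven bases) was cut by 3 µM recombinant His6-SUMO-tagged Rep nickase domain (300 nM DNA, 50 mM HEPES pH 8.0, 50 mM NaCl, 1 mM MnCl2, 1 h, 37 °C, three replicates). Uncut DNA was amplified and sequenced.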

[2] = test system: T2, Rep nickase domain of banana bunchy top virus
T2 sequence (protein, residues 1-94, tag omitted): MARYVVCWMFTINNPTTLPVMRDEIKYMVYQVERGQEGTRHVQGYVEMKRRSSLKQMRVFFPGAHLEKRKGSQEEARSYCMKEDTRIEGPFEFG
Protocol: as §1

[3] = test system: T3, Rep nickase domain of cabbage leaf curl virus
T3 sequence (protein, residues 1-116, tag omitted): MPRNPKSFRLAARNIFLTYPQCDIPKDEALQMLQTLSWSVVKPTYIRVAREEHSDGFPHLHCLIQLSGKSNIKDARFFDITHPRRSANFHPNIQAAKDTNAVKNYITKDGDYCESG
Protocol: as §1

[4] = test system: T4, Rep nickase domain of chickpea chlorotic dwarf virus
T4 sequence (protein, residues 1-124, tag omitted): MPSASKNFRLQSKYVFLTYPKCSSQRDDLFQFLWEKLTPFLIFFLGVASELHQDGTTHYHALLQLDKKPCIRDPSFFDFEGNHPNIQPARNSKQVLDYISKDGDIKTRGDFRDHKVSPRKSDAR
Protocol: as §1

[5] = test system: T5, Rep nickase domain of faba bean necrotic yellows virus
T5 sequence (protein, residues 1-98, tag omitted): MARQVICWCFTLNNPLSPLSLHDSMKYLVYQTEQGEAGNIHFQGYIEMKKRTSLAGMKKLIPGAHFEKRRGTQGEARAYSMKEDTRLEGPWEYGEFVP
Protocol: as §1

[6] = test system: T6, Rep nickase domain of maize striate mosaic virus
T6 sequence (protein, residues 1-117, tag omitted): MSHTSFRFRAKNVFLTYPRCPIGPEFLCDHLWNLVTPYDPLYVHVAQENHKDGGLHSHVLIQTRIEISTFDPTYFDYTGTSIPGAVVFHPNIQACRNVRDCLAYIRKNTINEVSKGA
Protocol: as §1

[7] = test system: T7, Rep nickase domain of porcine circovirus 2
T7 sequence (protein, residues 2-116, tag omitted): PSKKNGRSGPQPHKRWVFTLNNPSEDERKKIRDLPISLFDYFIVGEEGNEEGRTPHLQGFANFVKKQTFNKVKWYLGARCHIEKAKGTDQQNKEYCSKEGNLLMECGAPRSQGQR
Protocol: as §1

[8] = test system: T8, Rep nickase domain of tomato golden mosaic virus
T8 sequence (protein, residues 1-124, tag omitted): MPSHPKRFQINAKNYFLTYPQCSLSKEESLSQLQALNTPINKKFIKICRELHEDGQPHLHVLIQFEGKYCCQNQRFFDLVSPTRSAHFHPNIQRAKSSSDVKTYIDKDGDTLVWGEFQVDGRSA
Protocol: as §1

[9] = test system: T9, Rep nickase domain of tomato yellow leaf curl virus
T9 sequence (protein, residues 1-136, tag omitted): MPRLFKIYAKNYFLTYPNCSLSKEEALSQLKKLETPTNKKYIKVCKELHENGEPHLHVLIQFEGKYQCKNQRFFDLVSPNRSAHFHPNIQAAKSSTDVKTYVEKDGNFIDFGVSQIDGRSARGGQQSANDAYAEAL
Protocol: as §1

[10] = test system: T10, Rep nickase domain of wheat dwarf virus
T10 sequence (protein, residues 1-137, tag omitted): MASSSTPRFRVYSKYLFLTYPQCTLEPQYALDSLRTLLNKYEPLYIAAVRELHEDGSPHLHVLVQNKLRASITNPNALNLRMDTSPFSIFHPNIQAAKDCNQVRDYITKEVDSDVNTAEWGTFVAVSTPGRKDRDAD
Protocol: as §1

Sequence	uncleaved DNA left (log2) [1]	uncleaved DNA left (log2) [2]	uncleaved DNA left (log2) [3]	uncleaved DNA left (log2) [4]	uncleaved DNA left (log2) [5]	uncleaved DNA left (log2) [6]	uncleaved DNA left (log2) [7]	uncleaved DNA left (log2) [8]	uncleaved DNA left (log2) [9]	uncleaved DNA left (log2) [10]
GTTTGAG	0.149	0.186	-0.444	-0.374	0.0971	-0.871	0.183	0.0876	0.132	0.0062
TTACTCG	0.101	0.00624	-0.963	-1.74	0.0305	-1.32	0.0444	-0.0243	0.0109	0.0202
TGGTGGG	-0.0608	-0.0893	-0.351	-0.478	-0.00798	-0.736	0.0785	-0.105	0.0274	-0.121
TCATCGA	0.0612	0.0384	-0.466	-0.581	0.00727	-1.03	0.181	0.0171	0.067	-0.0399
CAATGAA	-0.0151	-0.103	-0.383	-0.892	0.0822	-0.911	-0.942	-0.0289	0.0708	-0.0693
AGCCACT	0.0166	-0.0419	0.0434	-0.0101	0.0723	1.24	-0.0414	0.0349	-0.0262	0.0774
CTTGTCT	0.0628	0.11	-0.272	-1.68	0.108	-0.796	-0.269	0.0136	0.152	-0.0303
TGGCAGT	0.232	0.13	0.63	1.25	0.0557	1.17	0.213	0.00835	0.192	0.171
GCGTCCC	-0.133	-0.0578	0.128	0.285	-0.0542	0.405	-0.214	-0.121	-0.0693	-0.109
CAGGTTG	0.0909	-0.107	-0.0402	0.426	-0.116	0.131	0.19	0.0305	-0.138	-0.184
GCAGGCC	-0.108	0.0623	-0.0185	0.43	-0.0233	-0.0906	0.0397	-0.0229	-0.0124	-0.0761
CGAACCC	-0.128	-0.146	-0.00381	-0.365	-0.0959	-0.231	-0.551	-0.262	-0.0909	0.0598
GGTATGA	0.0542	0.155	0.583	1.31	0.146	1.83	0.245	0.0968	0.166	0.118
CAGATGA	0.0848	-0.0342	0.00451	0.324	-0.129	0.273	-0.0166	0.0272	-0.122	-0.0101
CGTGTTG	-0.0682	-0.0337	-0.275	-0.232	-0.113	-0.508	0.102	-0.0895	-0.0712	-0.187
CTAGCAG	0.0879	0.0226	-0.557	-0.554	0.163	-0.982	0.218	0.0567	0.0587	-0.0243
GCATGTT	-2.87	-0.166	-1.05	-1.99	0.00177	-0.324	-2.66	-0.146	0.0429	-0.355
CACATTT	-0.0896	-0.809	-0.726	-2.69	-0.0623	-0.983	-2.61	-0.0706	0.083	-0.148
GTGATTT	-0.0917	-0.0669	0.243	0.744	-0.162	1.63	-0.123	-0.0968	-0.0624	0.0518
TGAGTTG	-0.0505	-0.0177	0.0502	0.198	-0.104	0.227	0.0825	-0.063	-0.197	-0.0635
TCTGAGT	0.0337	0.129	-0.14	-0.313	0.128	-0.745	0.02	0.0355	-0.00765	0.0501
GGGTGCA	0.0588	0.0241	0.774	1.68	0.0218	2.07	0.138	0.0134	-0.123	0.123
TGAACAA	0.0805	0.144	0.302	0.436	0.0273	0.315	0.177	0.0692	0.171	0.211
CTCGCGG	-0.112	-0.0928	0.429	1.43	-0.229	1.94	0.057	0.0771	-0.192	0.0142
TTTTAGG	0.0659	-0.16	0.483	1.37	0.0998	1.8	0.141	0.0691	-0.0938	-0.0214
TTTCCGT	0.0457	0.00351	-0.147	-0.762	-0.00364	-0.829	-0.136	-0.0866	0.00576	0.0162
AAAGCGT	0.0468	0.0203	-0.583	-0.517	0.134	-0.989	0.196	0.0626	0.0854	-0.0882
TAGAAAA	0.139	0.113	0.2	-0.478	0.103	-0.232	-0.758	0.0467	0.177	0.227
GCAGAGT	0.0564	0.168	-0.0591	-0.128	0.0552	-0.418	0.00112	0.145	0.0905	0.092
GACTTTT	-2.86	-2.52	-0.157	-1.68	-0.295	0.696	-3.01	-0.206	-0.0982	-0.185
